Source: paper PMC11799323
Results are given in words; binding and its absence hold for the method and conditions named. For part of these data: In cells and extracts the contact can be indirect. Some entries that bind do so weakly or less than the wild type. For part of these data: Where a sequence is shown, tags or fusion partners need not be part of it.

Protein sequences, listed by entry. Tags and fused reporters are not part of them.
UniProt O15169: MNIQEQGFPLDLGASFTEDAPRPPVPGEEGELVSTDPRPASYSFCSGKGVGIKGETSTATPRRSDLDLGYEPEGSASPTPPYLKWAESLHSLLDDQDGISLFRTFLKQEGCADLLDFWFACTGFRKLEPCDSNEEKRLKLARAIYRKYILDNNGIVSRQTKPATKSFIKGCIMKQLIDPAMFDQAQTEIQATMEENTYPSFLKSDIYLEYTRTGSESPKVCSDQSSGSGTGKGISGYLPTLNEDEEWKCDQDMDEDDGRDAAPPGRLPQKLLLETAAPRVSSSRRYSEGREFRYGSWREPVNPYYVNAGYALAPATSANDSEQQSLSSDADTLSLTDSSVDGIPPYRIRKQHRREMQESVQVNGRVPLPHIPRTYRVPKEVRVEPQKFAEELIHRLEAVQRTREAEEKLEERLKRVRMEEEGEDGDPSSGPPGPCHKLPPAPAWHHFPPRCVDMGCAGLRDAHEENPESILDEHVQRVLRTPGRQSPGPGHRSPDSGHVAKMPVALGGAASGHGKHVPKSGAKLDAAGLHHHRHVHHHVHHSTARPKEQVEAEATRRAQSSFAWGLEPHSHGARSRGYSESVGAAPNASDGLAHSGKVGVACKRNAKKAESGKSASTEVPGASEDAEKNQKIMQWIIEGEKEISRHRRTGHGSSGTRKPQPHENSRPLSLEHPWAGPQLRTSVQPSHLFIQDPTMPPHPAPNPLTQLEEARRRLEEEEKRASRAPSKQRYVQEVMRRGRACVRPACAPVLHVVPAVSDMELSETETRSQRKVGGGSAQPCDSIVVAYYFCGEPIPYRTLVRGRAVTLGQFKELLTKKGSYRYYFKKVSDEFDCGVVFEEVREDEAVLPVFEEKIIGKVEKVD
UniProt Q9NQB0: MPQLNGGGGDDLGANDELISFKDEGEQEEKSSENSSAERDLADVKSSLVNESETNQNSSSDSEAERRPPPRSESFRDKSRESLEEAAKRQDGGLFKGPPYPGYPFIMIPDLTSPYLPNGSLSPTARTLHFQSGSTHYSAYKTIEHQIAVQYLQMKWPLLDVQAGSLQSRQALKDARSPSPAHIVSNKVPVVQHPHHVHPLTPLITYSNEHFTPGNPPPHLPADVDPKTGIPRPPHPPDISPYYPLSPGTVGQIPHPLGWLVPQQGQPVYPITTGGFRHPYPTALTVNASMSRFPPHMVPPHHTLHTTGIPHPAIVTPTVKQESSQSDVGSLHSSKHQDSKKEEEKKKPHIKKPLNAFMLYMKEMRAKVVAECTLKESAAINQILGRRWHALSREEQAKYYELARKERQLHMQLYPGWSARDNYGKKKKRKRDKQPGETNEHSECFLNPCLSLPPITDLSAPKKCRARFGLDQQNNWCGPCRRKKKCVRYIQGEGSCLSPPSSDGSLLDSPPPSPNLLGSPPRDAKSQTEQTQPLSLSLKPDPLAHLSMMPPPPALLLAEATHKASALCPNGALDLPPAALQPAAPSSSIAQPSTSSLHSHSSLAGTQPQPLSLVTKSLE
UniProt P49841: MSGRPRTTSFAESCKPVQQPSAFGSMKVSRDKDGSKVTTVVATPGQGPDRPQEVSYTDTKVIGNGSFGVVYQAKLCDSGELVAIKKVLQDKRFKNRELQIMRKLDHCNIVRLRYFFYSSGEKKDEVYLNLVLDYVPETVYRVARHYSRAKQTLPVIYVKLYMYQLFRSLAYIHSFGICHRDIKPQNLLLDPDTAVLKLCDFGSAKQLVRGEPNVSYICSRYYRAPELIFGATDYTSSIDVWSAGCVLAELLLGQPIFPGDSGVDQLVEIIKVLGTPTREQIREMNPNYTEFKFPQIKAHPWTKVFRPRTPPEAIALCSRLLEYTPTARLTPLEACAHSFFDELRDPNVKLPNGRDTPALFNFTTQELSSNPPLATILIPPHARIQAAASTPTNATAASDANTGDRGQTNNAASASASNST
UniProt P35222: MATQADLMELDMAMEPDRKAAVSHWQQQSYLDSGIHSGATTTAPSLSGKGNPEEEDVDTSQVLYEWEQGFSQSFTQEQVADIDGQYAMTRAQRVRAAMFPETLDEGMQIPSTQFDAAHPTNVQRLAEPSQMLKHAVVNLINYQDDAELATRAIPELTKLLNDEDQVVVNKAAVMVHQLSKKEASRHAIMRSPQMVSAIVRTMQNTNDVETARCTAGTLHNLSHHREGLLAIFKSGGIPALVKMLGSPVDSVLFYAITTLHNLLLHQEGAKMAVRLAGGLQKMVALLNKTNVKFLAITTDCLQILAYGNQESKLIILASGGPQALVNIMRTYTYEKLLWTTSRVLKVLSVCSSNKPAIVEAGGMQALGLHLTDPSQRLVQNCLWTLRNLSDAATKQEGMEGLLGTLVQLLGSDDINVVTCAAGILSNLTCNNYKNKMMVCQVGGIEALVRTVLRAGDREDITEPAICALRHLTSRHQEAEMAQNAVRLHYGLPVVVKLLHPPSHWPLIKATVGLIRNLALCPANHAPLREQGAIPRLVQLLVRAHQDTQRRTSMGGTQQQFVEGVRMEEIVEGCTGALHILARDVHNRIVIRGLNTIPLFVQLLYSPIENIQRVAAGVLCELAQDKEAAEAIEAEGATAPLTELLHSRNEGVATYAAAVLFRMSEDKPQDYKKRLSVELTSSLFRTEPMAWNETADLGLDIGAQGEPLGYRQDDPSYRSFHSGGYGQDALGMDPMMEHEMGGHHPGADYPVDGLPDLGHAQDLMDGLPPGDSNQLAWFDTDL

T1: Flag-tagged Ephexin1 (wild-type) (human) (UniProt Q8N5V2)
T1 sequence: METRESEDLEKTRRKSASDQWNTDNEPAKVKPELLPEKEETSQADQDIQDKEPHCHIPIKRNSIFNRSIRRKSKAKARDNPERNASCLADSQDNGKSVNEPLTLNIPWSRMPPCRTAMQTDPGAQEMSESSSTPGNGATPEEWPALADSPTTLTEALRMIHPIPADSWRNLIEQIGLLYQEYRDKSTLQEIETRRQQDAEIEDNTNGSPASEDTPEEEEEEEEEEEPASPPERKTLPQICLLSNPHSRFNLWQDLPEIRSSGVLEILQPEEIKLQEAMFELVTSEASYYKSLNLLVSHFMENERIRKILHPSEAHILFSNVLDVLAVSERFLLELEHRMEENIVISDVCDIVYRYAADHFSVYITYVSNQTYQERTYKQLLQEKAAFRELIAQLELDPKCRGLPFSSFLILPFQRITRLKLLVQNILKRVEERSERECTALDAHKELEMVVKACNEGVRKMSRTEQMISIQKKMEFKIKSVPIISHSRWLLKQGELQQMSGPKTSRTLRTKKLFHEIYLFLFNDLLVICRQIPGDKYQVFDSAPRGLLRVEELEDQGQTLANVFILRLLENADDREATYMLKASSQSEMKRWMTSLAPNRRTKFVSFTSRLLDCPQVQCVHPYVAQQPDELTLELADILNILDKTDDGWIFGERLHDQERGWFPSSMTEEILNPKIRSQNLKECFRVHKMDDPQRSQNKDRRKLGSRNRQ

T2: Ephexin1 (yeast two-hybrid) (human) (UniProt Q8N5V2)
T2 sequence: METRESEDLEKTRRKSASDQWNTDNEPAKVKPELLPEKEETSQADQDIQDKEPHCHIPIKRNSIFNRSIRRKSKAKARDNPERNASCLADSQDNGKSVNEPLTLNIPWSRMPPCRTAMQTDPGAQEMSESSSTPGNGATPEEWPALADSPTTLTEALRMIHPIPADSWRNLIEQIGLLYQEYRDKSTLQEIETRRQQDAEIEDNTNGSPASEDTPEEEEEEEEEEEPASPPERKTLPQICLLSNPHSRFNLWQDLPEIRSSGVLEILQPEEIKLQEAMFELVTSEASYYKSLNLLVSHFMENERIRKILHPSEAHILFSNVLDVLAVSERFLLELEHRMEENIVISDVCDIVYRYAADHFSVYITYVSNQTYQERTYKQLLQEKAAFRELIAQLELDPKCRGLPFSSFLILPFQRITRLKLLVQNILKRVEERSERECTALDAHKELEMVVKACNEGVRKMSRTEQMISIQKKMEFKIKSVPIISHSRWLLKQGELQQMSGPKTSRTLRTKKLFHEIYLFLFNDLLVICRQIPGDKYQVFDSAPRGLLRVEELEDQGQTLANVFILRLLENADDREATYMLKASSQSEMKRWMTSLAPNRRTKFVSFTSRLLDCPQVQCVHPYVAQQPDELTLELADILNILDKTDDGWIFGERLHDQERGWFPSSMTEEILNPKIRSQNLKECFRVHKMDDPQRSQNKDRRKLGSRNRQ

T3: Ephexin1 (endogenous, colorectal tissue) (human (endogenous in colorectal tissue)) (UniProt Q8N5V2)
T3 sequence: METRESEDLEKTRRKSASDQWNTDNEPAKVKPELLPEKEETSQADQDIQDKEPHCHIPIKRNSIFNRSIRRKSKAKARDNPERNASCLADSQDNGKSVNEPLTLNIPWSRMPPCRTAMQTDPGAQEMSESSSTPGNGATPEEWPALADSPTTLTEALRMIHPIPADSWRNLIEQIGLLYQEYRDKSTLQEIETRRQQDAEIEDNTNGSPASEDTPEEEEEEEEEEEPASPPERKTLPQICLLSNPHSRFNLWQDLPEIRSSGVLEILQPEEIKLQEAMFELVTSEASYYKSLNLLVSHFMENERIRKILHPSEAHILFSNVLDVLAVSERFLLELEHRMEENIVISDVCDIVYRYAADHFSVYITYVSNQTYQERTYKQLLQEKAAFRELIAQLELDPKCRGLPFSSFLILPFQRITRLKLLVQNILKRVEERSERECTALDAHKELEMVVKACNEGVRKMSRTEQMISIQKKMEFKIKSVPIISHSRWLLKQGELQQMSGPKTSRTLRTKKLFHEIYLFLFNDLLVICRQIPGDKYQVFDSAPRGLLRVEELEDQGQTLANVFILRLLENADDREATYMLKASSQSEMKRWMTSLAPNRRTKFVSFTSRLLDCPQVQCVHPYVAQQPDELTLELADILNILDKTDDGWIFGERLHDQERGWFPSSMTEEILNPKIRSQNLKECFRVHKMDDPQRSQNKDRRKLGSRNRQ


How the values were obtained:
[1] = target: T1, Flag-tagged Ephexin1 (wild-type) (human); assay: co-IP; HEK293T cells transiently transfected with Flag-tagged Ephexin1; immunoprecipitation with anti-Flag antibody, immunoblot of endogenous partners; IP150 lysis buffer (150 mM NaCl, 0.5% NP-40)
[2] = target: T2, Ephexin1 (yeast two-hybrid) (human); assay: two-hybrid; yeast two-hybrid assay; constructs in Supplementary Fig. 7a-c
[3] = target: Axin1 (endogenous) (human (endogenous in HEK293T, HCT116 and colorectal tissue)) (UniProt O15169); assay: co-IP; lysates of control and Ephexin1-depleted (siRNA) HEK293T cells; immunoprecipitation with anti-Axin1 antibody; endogenous proteins
[4] = target: Flag-tagged full-length Axin1 (human) (UniProt O15169); assay: co-IP; lysates of HEK293T cells cotransfected with V5-tagged Ephexin1 and Flag-tagged Axin1; immunoprecipitation with anti-Axin1 antibody; endogenous partners blotted
[5] = target: T3, Ephexin1 (endogenous, colorectal tissue) (human (endogenous in colorectal tissue)); assay: proximity ligation; Duolink PLA on tissue microarrays of colorectal cancer of various grades and adjacent normal tissue; anti-Ephexin1 (rabbit) and anti-Axin1 (mouse) antibodies
[6] = target: T1, Flag-tagged Ephexin1 (wild-type) (human); assay: co-IP; HEK293T cells cotransfected with Flag-tagged Ephexin1 (wild-type or ABSM mutant) and V5-tagged Axin1; immunoprecipitation with anti-Flag antibody, blot with anti-V5; with Wnt3a-CM for the indicated durations in Fig. 4b
[7] = target: Flag-tagged full-length Axin1 (human) (UniProt O15169); assay: co-IP; HEK293T cells cotransfected with V5-tagged Ephexin1 (full-length or mutant) and Flag-tagged Axin1 (full-length or mutant); immunoprecipitation with anti-Flag antibody, blot with V5 and Flag antibodies

Row | Molecule | binding [1] | binding [7] | further results
1 | TCF4 (endogenous) (from UniProt Q9NQB0 1-619) | binds |  | 
2 | Glycogen Synthase Kinase 3β (GSK3β) (endogenous) (from UniProt P49841 1-420) (enzyme) | binds |  | 
3 | Axin1 (yeast two-hybrid) (from UniProt O15169 1-862) |  |  | binding [2]: binds
4 | β-catenin (endogenous) (from UniProt P35222 1-781) | binds |  | binding [3]: binds; binding [4]: binds
5 | Axin1 (endogenous) (from UniProt O15169 1-862) | binds |  | binding [5]: binds
6 | V5-tagged Axin1 (from UniProt O15169 1-862) |  |  | binding [6]: binds
7 | V5-tagged full-length Ephexin1 (protein, UniProt Q8N5V2 1-710) METRESEDLEKTRRKSASDQWNTDNEPAKVKPELLPEKEETSQADQDIQDKEPHCHIPIKRNSIFNRSIRRKSKAKARDNPERNASCLADSQDNGKSVNEPLTLNIPWSRMPPCRTAMQTDPGAQEMSESSSTPGNGATPEEWPALADSPTTLTEALRMIHPIPADSWRNLIEQIGLLYQEYRDKSTLQEIETRRQQDAEIEDNTNGSPASEDTPEEEEEEEEEEEPASPPERKTLPQICLLSNPHSRFNLWQDLPEIRSSGVLEILQPEEIKLQEAMFELVTSEASYYKSLNLLVSHFMENERIRKILHPSEAHILFSNVLDVLAVSERFLLELEHRMEENIVISDVCDIVYRYAADHFSVYITYVSNQTYQERTYKQLLQEKAAFRELIAQLELDPKCRGLPFSSFLILPFQRITRLKLLVQNILKRVEERSERECTALDAHKELEMVVKACNEGVRKMSRTEQMISIQKKMEFKIKSVPIISHSRWLLKQGELQQMSGPKTSRTLRTKKLFHEIYLFLFNDLLVICRQIPGDKYQVFDSAPRGLLRVEELEDQGQTLANVFILRLLENADDREATYMLKASSQSEMKRWMTSLAPNRRTKFVSFTSRLLDCPQVQCVHPYVAQQPDELTLELADILNILDKTDDGWIFGERLHDQERGWFPSSMTEEILNPKIRSQNLKECFRVHKMDDPQRSQNKDRRKLGSRNRQ |  | binds | 
8 | V5-tagged Ephexin1 DH/PH domain (amino acids 273 to 601) (domain or fragment, UniProt Q8N5V2 273-601) KLQEAMFELVTSEASYYKSLNLLVSHFMENERIRKILHPSEAHILFSNVLDVLAVSERFLLELEHRMEENIVISDVCDIVYRYAADHFSVYITYVSNQTYQERTYKQLLQEKAAFRELIAQLELDPKCRGLPFSSFLILPFQRITRLKLLVQNILKRVEERSERECTALDAHKELEMVVKACNEGVRKMSRTEQMISIQKKMEFKIKSVPIISHSRWLLKQGELQQMSGPKTSRTLRTKKLFHEIYLFLFNDLLVICRQIPGDKYQVFDSAPRGLLRVEELEDQGQTLANVFILRLLENADDREATYMLKASSQSEMKRWMTSLAPNRR |  | binds | 
9 | V5-tagged Ephexin1 SH3 domain (domain or fragment, UniProt Q8N5V2 612-673) LDCPQVQCVHPYVAQQPDELTLELADILNILDKTDDGWIFGERLHDQERGWFPSSMTEEILN |  | no binding | 
